# According to ChEMBL document CHEMBL4888484, “Replenishing the malaria drug discovery pipeline: Screening and hit evaluation of the MMV Hit Generation Library 1 (HGL1) against asexual blood stage Plasmodium falciparum ,using a nano luciferase reporter read-out” (2022):
# Where “and” joins values, the source holds several entries; their conditions need not be identical. Identical values can stand only once. Screen size: about 150,000 compounds; about 540 (0.36%) showed an effect of 50% or more. This is one part of the list.
# Test system: Plasmodium falciparum
# Assay: Primary screen in NF54 nanoGlo assay, in single point, at 2uM, 72h; a lower Z score goes with more inhibition
# Assay type: functional, Erythrocyte
# Conditions: timepoint 72 hour
SMILES,% Inhibition [%],Z score,% Inhibition (2 µM),Z score (2 µM)
O=C(Cn1c(C2CCCCC2)nc2ccccc21)Nc1nnc[nH]1,-1,0.21,,
OC(CN1CCCC1C1CCCCC1)Cn1cccn1 (configuration not stated),1,-0.1,,
O=C1CC[C@]2(CNC(=O)c3ccncc3)CCCC=C2N1,8,-1.2,,
Cc1c(C)[n+]([O-])c([C@@H](c2ccc(O)cc2)C2C(=O)OC(C)(C)OC2=O)n1C,-11,1.46,,
COCCNC(=O)C(=O)NCc1ccc(C)cc1,-5,0.71,,
CC(C)(C)c1cc([C@H]2CC(O)=Nc3c2c(=O)[nH]n3C2CCOCC2)cc(C(C)(C)C)c1O,-11,1.22,,
CCC[C@H](C)C(=O)Nc1ccc(C)cc1,-8,1.05,,
CCCOC1(CNC(=O)c2cnn(C)c2)CCCCC1,5,-0.72,,
CC(C)n1ccc(-c2nc(CC(N)=O)nn2CC(F)(F)F)n1,-14,1.4,,
O=C(NCc1ncccn1)NC[C@H]1C[C@@H]1C1CCCCC1,-6,0.92,,
CN1CCO[C@@H]2CN(Cc3ccccc3OC3CC3)C[C@@H]21,8,-1.02,,
Cc1ccccc1CC(C)(C)NC(=O)[C@H]1CC12CCS(=O)(=O)CC2,1,-0.07,,
CC[C@H]1CN(S(=O)(=O)c2ccc(OC)cc2)CC[C@H]1CC(=O)N(C)CC#N,-15,2.37,,
Cc1cc(C)n2ncc(CN(CCO)Cc3ccc(F)cc3)c2n1,3,-0.55,,
CCCn1ccnc1CCCN(C)C(=O)C1CC1c1ccccc1C(F)(F)F (configuration not stated),5,-0.58,,
Cc1csc(N(CC(F)(F)F)C(=O)c2ccc(C)o2)n1,1,-0.15,,
COC(=O)[C@@H]1Cc2ccc(O)cc2CN1C(=O)CN(C)C(C)=O,-10,2.02,,
C[C@@H](c1ccc(Cl)c(Cl)c1)N(C)Cc1nc(C(=O)O)co1,-13,1.39,,
Fc1ccc2nc([C@H]3CCCN(Cc4ncccc4Cl)C3)oc2c1,7,-1.3,,
CCN(CCS(N)(=O)=O)[C@@H](C)c1cccc(OC)c1,-6,0.56,,
Cc1nc2c(-c3ccncc3)nsc2c(=O)n1CC(=O)Nc1ccc2c(c1)OCO2,2,-0.27,,
CCC1CN(CC(C)(C)O)C(CC)CN1CC(=O)Nc1cc(OC)cc(OC)c1 (configuration not stated),-14,1.29,,

SMILES,% Inhibition [%],Z score,% Inhibition (2 µM),Z score (2 µM)
NC(=O)C1CCCC1NC(=O)C1COc2ccccc21 (configuration not stated),-10,1.37,,
CCCN1C[C@@H](Nc2cc(-c3ccccc3F)nc3ccnn23)CC1=O,-11,1.34,,
COc1ccc(C2CN(Cc3cc(C)c(C)o3)CC2CN(Cc2ccc(F)cc2)C(C)=O)cc1 (configuration not stated),2,-0.2,,
COc1ccc(-c2n[nH]c3c2cnc2ccc(F)cc23)cc1,-11,1.01,,
CC(C)CN(CC(N)=O)CC1=CCCOC1,-2,0.27,,
O=C1CC[C@H](COC(=O)c2cc(-c3ccc(F)cc3)on2)N1,-1,0.22,,
COc1cccc(-c2cc3n(C)c(C)c(CCC(=O)N4CCCC4)c(=O)n3n2)c1,-1,0.15,,
Cn1ncc(Br)c1C(=O)N1CCC[C@H]1c1cccc(F)c1,-9,1.81,,
COc1ccc(CN2C(=O)N(Cc3c(F)cccc3Cl)c3ccccc3S2(=O)=O)cc1,-8,0.92,,
CC(=O)N(c1nc(Cn2ccnn2)cs1)C1CC1,-2,0.38,,
Cn1cc([C@@H]2C[C@H]2C(=O)NCc2ccc(N3CCCS3(=O)=O)c(F)c2)cn1,-4,0.41,,
O=C(COc1ccccc1)N1CCCCCCC1,-6,1.22,,
CN1C(=O)c2ccc(NC(=O)c3cc4c(s3)CCCCC4)cc2C1=O,-14,2.3,,
CCc1cc([C@H](C)NC(=O)c2cn(CC)nc2C)on1,-9,0.85,,
C[C@@]1(C(=O)NC2CCCC2)COc2c(oc3ccccc23)C(=O)N1Cc1cccc(F)c1,-6,0.61,,
COC1CCN(c2nc(C#N)c(Cl)s2)CC1,-12,1.47,,
CCC(Cc1ccc(C(F)(F)F)cc1)C(=O)N[C@@H]1C=C[C@H](CO)C1 (some centres not stated),-18,1.78,,
CC(C)(C)OC(=O)NCc1cccc(CN)c1,0,0.07,,
CC(C)(C)c1ccc(NC(=O)CCn2ccc(=O)[nH]c2=O)cc1,-10,1.09,,
CC(C)CN1CCCC1C(=O)N1CCO[C@H]2CCC[C@H]21 (some centres not stated),-5,0.92,,
CCC(C)C(C)C(=O)N(C)CCN(C)C(=O)C12CC(C(C)(C)C)(C1)C2 (configuration not stated),-6,0.85,,
O=C([C@H]1CCCN(c2ccncc2F)C1)N1CCCC1,-6,0.56,,

SMILES,% Inhibition [%],Z score,% Inhibition (2 µM),Z score (2 µM)
CC(C)CCNC(=O)CN1C(=O)[C@H](C)NC(=O)c2ccccc21,-8,0.94,,
CC(C)=CCN1CCC(Oc2ccc(C)cc2)(C(=O)O)CC1,3,-0.56,,
COC1(C)CCCN(C(=O)NC(C)CCc2ccc(C)o2)CC1 (configuration not stated),-17,2.13,,
CC(C)N(CCC(=O)NCc1ccccc1)c1nc(C2CC2)nc2cc(Cl)ccc12,-11,2.15,,
CCOc1ccccc1C(=O)N1CC2(C[C@@H](C(=O)NC(C)C)N(C)C2)C1,-17,2.02,,
CCCN(C)c1nccn2c(=O)n(CC(=O)Nc3cccc(C(C)=O)c3)nc12,-4,0.52,,
Cc1ccccc1N1CCN(S(=O)(=O)CC2CCOCC2)CC1,-8,1.51,,
CC(C)S(=O)(=O)N(C)C(=O)c1cccs1,-14,2.31,,
Cc1nn(C)c(C)c1S(=O)(=O)NC(=O)CC1CC2CCC1C2 (configuration not stated),-7,1.23,,
COc1cc2c(cc1CC#N)CCC(C)(C)O2,5,-0.59,,
c1ccc(-c2c[nH]c3c(N4CCCCC4)ncnc23)cc1,32,-3.58,,
Cc1ccnc(N2CCOc3ccccc3C2)n1,-13,1.69,,
COc1ccc(S(=O)(=O)N2CCc3nn(C)c(=O)n3CC2)cc1Cl,-20,2.62,,
CCCc1noc([C@H](C)OC(=O)c2cccc(OC)c2O)n1,-6,0.55,,
CC(C)(C)n1cc(CNc2ncc(F)cc2Br)nn1,17,-1.97,,
CC(C)n1cc(C(=O)N(C)[C@@H](C)c2cncs2)cn1,0,0.02,,
O=C(Nc1ccc(Cl)cc1)N1Cc2nc[nH]c2C[C@H]1c1nc(-c2ccncc2)no1,-15,2.86,,
Cc1cc(CS(=O)(=O)CCCN2C(=O)NC(C)(C)C2=O)no1,-17,1.56,,
Cc1cc(NC(=O)c2ccccc2C(=O)c2ccc(Cl)cc2)no1,-29,3.38,,
CCS(=O)(=O)NCCNc1cccc(C)n1,-5,0.69,,
O=C(c1ccc2nc(-c3ccc(F)cc3)cn2c1)N1C[C@@H]2[C@H](C1)[C@H]1CC[C@@H]2O1,-7,1.1,,
O=C(NCCn1nc(-n2cncn2)ccc1=O)Nc1cc(Cl)ccc1Cl,8,-1.26,,

SMILES,% Inhibition [%],Z score,% Inhibition (2 µM),Z score (2 µM)
CC(C)(C)OC(=O)Nc1cnc(-c2ccccc2)s1,-10,2.05,,
O=C(NC1CCCCC1)N1CCCCC[C@@H]1CN1CCCC1,-8,1.3,,
COc1ccc(Cl)cc1S(=O)(=O)N(C)c1cnccn1,-1,0.25,,
Cc1ccc(NC[C@H]2CCN(Cc3nc(-c4ccccc4)no3)C2)nc1,-12,1.29,,
O=C(c1cnn(CCF)c1)N1CC(Cc2ccoc2)C1,-12,1.93,,
Cc1ccc(OCc2nc(C)c(C(=O)Nc3nnc(C4CC4)s3)s2)cc1C,-4,0.54,,
CC1CC(N(C)Cc2ccccc2Cl)C(=O)O1 (configuration not stated),0,0.04,,
CS(=O)(=O)c1ccc(-c2nc(CN3CCCCC[C@@H]3CCO)cs2)cc1,9,-1.52,,
Cc1nc(C)c(CN(C)C2CCS(=O)(=O)CC2)s1,12,-1.23,,
C[C@@H](c1ccc(F)cc1)S(=O)(=O)CC(N)=O,-11,2.22,,
CC1CC(C)CN(C2CCN(C(=O)c3cccs3)CC2)C1 (configuration not stated),,,2% and 1%,-0.22 and -0.14
Cc1cc(C(=O)NCC2(NC(=O)OC(C)(C)C)CCCCCC2)on1,-1,0.15,,
CCn1cc(C)c(C(=O)O)c1CC(=O)Nc1cc(C)cc(C)c1,5,-0.6,,
Cc1ccc(-c2nc3cccc(C)n3c2Nc2ccc3c(c2)OCCO3)o1,1,-0.1,,
COc1ccc(F)cc1C(NC(=O)CCc1cc(O)no1)[C@H]1C[C@H](O)C1 (some centres not stated),-6,1.03,,
O=C1NC2(CCCC2)C(=O)N1CCNc1ccn(-c2ccccc2)n1,-12,1.76,,
Cc1c(-c2cc(C(=O)NCCc3ccc4c(c3)OCO4)no2)cnn1C,-6,0.74,,
Cc1nc(C)c(C)c(N(C)CC2(CO)CCC2)n1,-11,1.41,,
O=C(Cn1cnnn1)N1CCC(F)(c2ccc(Cl)cc2)CC1,-10,1.98,,
COC[C@]1(C(=O)O)CCN(c2ccnc(N(C)C)n2)C1,-15,2.91,,
